{
  "source": "the RNAGym collection of RNA variant scans (doi:10.7554/elife.90254)",
  "parents": {"B1": {"name": "LINE1-mini (parent)", "chain": "GGCAGAGCUCAACACAGCGUGGCAAAGUGGCUGUGGCUAGACUGCC"}},
  "note": "The source gives no read counts; variants with many changes may rest on few reads.",
  "data": [
    {"variants_of": "B1", "assay": "self-cleavage, relative activity (ratio to wild type); higher = more cleavage; in vitro, sequencing; the parent is a self-cleaving ribozyme", "values": [
      {"variant": "GUCAGAGCUCAUCACAGUGAGGCAAAGUGUUUGUGGCUUGACUGCC", "note": "[G2U A12U C18U U20A G30U C31U A39U]", "self-cleavage": 0.01},
      {"variant": "GUCAGAGCUCAACACAGCGUGGCAAGGUGGCUGGGGCUAGACUGCC", "note": "[G2U A26G U34G]", "self-cleavage": 0.02},
      {"variant": "GUCAGAGCUCAACACGGCGUGGCAUAGUGGCUGUGGUUAGACUGCC", "note": "[G2U A16G A25U C37U]", "self-cleavage": 0.03},
      {"variant": "GUCAGAGCUCAACCCAGCGUGGCAAAGUGGCUGUGGCUAAACUGCC", "note": "[G2U A14C G40A]", "self-cleavage": 0},
      {"variant": "GUCAGAGCUCAACACUACGUGGCAAAGUGGCUGUGGCUAGACUGCC", "note": "[G2U A16U G17A]", "self-cleavage": 0.03},
      {"variant": "GUCAGAGCUCGACACAGCGUGGCAAAGUGGCUGUGGCUACACUGCA", "note": "[G2U A11G G40C C46A]", "self-cleavage": 0},
      {"variant": "GUCAGAGCUCACCACAGCGUGGCAAAUUGGCUGUGGCUAGACUGCC", "note": "[G2U A12C G27U]", "self-cleavage": 0},
      {"variant": "GUCAGAGCUCACCACGGCAUGGCGUAGUGGCUGUGGCUAGACUGCC", "note": "[G2U A12C A16G G19A A24G A25U]", "self-cleavage": 0.01},
      {"variant": "GUCAGUGCACAACACAGCGUGGCAAACUCGCUGUGGCUAGACUGCC", "note": "[G2U A6U U9A G27C G29C]", "self-cleavage": 0.1},
      {"variant": "GUCAGAGCUCAACACAGCGUGGCAUAGUAGCUGUGGCUAGACUGCC", "note": "[G2U A25U G29A]", "self-cleavage": 0.07},
      {"variant": "GUCAGAGCUCAGCGCAGCGUGGCAAAGUGGCUGUGGCUAGACAGCC", "note": "[G2U A12G A14G U43A]", "self-cleavage": 0.03},
      {"variant": "GUCAGAGCUCAACACUGCGAGGCAAAAUGGCUGUGGACAGACUGCC", "note": "[G2U A16U U20A G27A C37A U38C]", "self-cleavage": 0.01},
      {"variant": "GUCAGAGCUCCACACAGCGUGUCCAAGUGGCUGUGGCUAGAAUGAC", "note": "[G2U A11C G22U A24C C42A C45A]", "self-cleavage": 0},
      {"variant": "GUCAGAGCUCAACUCAGCAUGUCAAAGUGGCUGUGGCUAGACUGCC", "note": "[G2U A14U G19A G22U]", "self-cleavage": 0.05},
      {"variant": "GUCAGAGCUCCACACAGCCUGGCAAAGUGGCUGUGGCUAGACUGCC", "note": "[G2U A11C G19C]", "self-cleavage": 0.02},
      {"variant": "GUCAGAGCUCAACACUGCGUCGCAAAGUGGCUGUGGCAAGACUACC", "note": "[G2U A16U G21C U38A G44A]", "self-cleavage": 0},
      {"variant": "GUCAGAGCUCAACACUGCGUGGCAAAUUGGCUGUGGCUAGACUGCC", "note": "[G2U A16U G27U]", "self-cleavage": 0.02},
      {"variant": "GUCAGAGCUCCACACAGCGUGGCAAAGUGGCUGUGGCUUGACUGCC", "note": "[G2U A11C A39U]", "self-cleavage": 0.02},
      {"variant": "GUCAGAGCUCUAGACAGCGUGGCAAAGUGGCUGUGGCUAGAGUGCC", "note": "[G2U A11U C13G C42G]", "self-cleavage": 0},
      {"variant": "GUCAGAGCUCAACGCAGCGUGGCAAAGUAGCUGUGUCUAGACCGCC", "note": "[G2U A14G G29A G36U U43C]", "self-cleavage": 0.03},
      {"variant": "GUCAGAGCUCAACACCGGGUGGCAAAGUGGAUGUGGCUAGAAUGCC", "note": "[G2U A16C C18G C31A C42A]", "self-cleavage": 0},
      {"variant": "GUCAGAGCUCAACACUGCGUGGCAAAGUAGCUGUAGCUAUACUGCC", "note": "[G2U A16U G29A G35A G40U]", "self-cleavage": 0.05},
      {"variant": "GUCAGUGCUCGACACAGCGUGGCAAAGUGGCUGUGGCUAGACUGCC", "note": "[G2U A6U A11G]", "self-cleavage": 0.01},
      {"variant": "GUCAGAGCUCAACACGGCGGGGCAAAGUGGCUGUGGCUGGACUGCC", "note": "[G2U A16G U20G A39G]", "self-cleavage": 0.01},
      {"variant": "GUCAGAGCUCAACCCAGCGUGGCAAGGUGGCUGUGGCUAGACUGCC", "note": "[G2U A14C A26G]", "self-cleavage": 0},
      {"variant": "GUCAGAGCUCUACACAGAGUGGCAAAGUACCUUUGGCUAGACUGCC", "note": "[G2U A11U C18A G29A G30C G33U]", "self-cleavage": 0},
      {"variant": "GUCAGAGCUCCACACAGCGUGGCAAACUGGCUGCUUCUAGACUGCC", "note": "[G2U A11C G27C U34C G35U G36U]", "self-cleavage": 0},
      {"variant": "GUCAGAGCUCAACACAGCGUGGCUGAGUGGCUGUGGCUAGACUGCC", "note": "[G2U A24U A25G]", "self-cleavage": 0.02},
      {"variant": "GUCAGAGCUCAACUCAGCGGGGCACAGUGGCUGUGCCUAGACUGCC", "note": "[G2U A14U U20G A25C G36C]", "self-cleavage": 0.06},
      {"variant": "GUCAGAGCUCAACACAGCGUGGCAUAGUGGCUGUGGCUAUACUGCC", "note": "[G2U A25U G40U]", "self-cleavage": 0.03},
      {"variant": "GUCAGAGCUCGACAUAGCGUGGCAAAGUGGCUGUGGCUAGACUGCC", "note": "[G2U A11G C15U]", "self-cleavage": 0},
      {"variant": "GUCAGAGCUCAACACAGCGUGGCACAGUGGCUGUGGCUAGACUGCG", "note": "[G2U A25C C46G]", "self-cleavage": 0.03},
      {"variant": "GUCAGAGCUCCAUACAGCGUGGCAAAGUGGCUGUGGCUAGACUGCC", "note": "[G2U A11C C13U]", "self-cleavage": 0},
      {"variant": "GUCAGAGCUCAACUCACCGUGGCAAAGUGGCUGUGGCUAGACUGCC", "note": "[G2U A14U G17C]", "self-cleavage": 0.04},
      {"variant": "GUCAGAGCUCUAUACAACGUUGCAAAGUGGCUGUGGCUUGACUGCC", "note": "[G2U A11U C13U G17A G21U A39U]", "self-cleavage": 0.01},
      {"variant": "GUCAGAGCUCAACACGGCGUGGAAAAGUGGCUGUGACUUUACUGCC", "note": "[G2U A16G C23A G36A A39U G40U]", "self-cleavage": 0.03},
      {"variant": "GUCAGAGCUCUACACACGGUGGCAAAGUGGCUGUGGCUAGACAGCC", "note": "[G2U A11U G17C C18G U43A]", "self-cleavage": 0},
      {"variant": "GUCAGAGCUCACCACAGCGUGGCAAAGUGGCUGUUGCUUGACUGCC", "note": "[G2U A12C G35U A39U]", "self-cleavage": 0.03},
      {"variant": "GUCAGAGCUCAACACAGCGUGGCGAAGUGGGUGUGGCUAUACUGCC", "note": "[G2U A24G C31G G40U]", "self-cleavage": 0.05},
      {"variant": "GUCAGAGCUCUACACAGCGUGGCAAAGUGGCUAUGGCUAGACUGCC", "note": "[G2U A11U G33A]", "self-cleavage": 0.01},
      {"variant": "GUCAGAGCUCAACACGGCUGGGCAAAGUGGCUGUGGGGAGACUGCC", "note": "[G2U A16G G19U U20G C37G U38G]", "self-cleavage": 0.01},
      {"variant": "GUCAGAGCUCAACACAGCGUGGCAUAGUGGCUGUGGCUAGACUACC", "note": "[G2U A25U G44A]", "self-cleavage": 0.04},
      {"variant": "GUCAGAGCUCACCACAGCGUGUCAAAGUGGCUGUGGCUAGACUGCC", "note": "[G2U A12C G22U]", "self-cleavage": 0.02},
      {"variant": "GUCAGAGCUCAACACAGCGUGGCGAAGUGGCUGUUGCUAGACUGCC", "note": "[G2U A24G G35U]", "self-cleavage": 0.11},
      {"variant": "GUCAGAGCUCAACUCAGCGUGGGAAAGUGGCCGUGGCUAGACUGUC", "note": "[G2U A14U C23G U32C C45U]", "self-cleavage": 0.01},
      {"variant": "GUCAGAGCUCACCACAGCGUGGCAAAGUGGCUGUGGCUAGAUUGCC", "note": "[G2U A12C C42U]", "self-cleavage": 0},
      {"variant": "GUCAGAGCUCAACACUGCUUGGCAAAGUGGCUGUGGCUUGACUGCC", "note": "[G2U A16U G19U A39U]", "self-cleavage": 0.02},
      {"variant": "GUCAGAGCUCGACCCAGCGUGGUAAAGUGGCUGCGGCUAGACUGCC", "note": "[G2U A11G A14C C23U U34C]", "self-cleavage": 0},
      {"variant": "GUCAGAGCUCAACACAGCGUGGCGAAGUGGCUGUGACUAGACUGCC", "note": "[G2U A24G G36A]", "self-cleavage": 0.03},
      {"variant": "GUCAGAGCUCAACACAGCGUGGCAAGGGGGCUAUGGCUCGACUGCC", "note": "[G2U A26G U28G G33A A39C]", "self-cleavage": 0.01},
      {"variant": "GUCAGAGCUCAUCACAGCGUGGCAAAGUGGCUGUAGCUAGACUGCC", "note": "[G2U A12U G35A]", "self-cleavage": 0},
      {"variant": "GUCAGAGCUCGACACAGGGUGGCGAAGUGGCUCUUGCUAGACUGCC", "note": "[G2U A11G C18G A24G G33C G35U]", "self-cleavage": 0},
      {"variant": "GUCAGAGCUCAGCACAGCGUGGCAAAGUGGCUGUGGCUAGACCGCC", "note": "[G2U A12G U43C]", "self-cleavage": 0.02},
      {"variant": "GUCAGAGCUCUACACAGCGUGCCAAAUUGGCUGUGGCUAGACUGCA", "note": "[G2U A11U G22C G27U C46A]", "self-cleavage": 0.01},
      {"variant": "GUCAGAGCUCAACACAGCGUGGCUAAGUGGAUGUGGCUAGACUGCU", "note": "[G2U A24U C31A C46U]", "self-cleavage": 0},
      {"variant": "GUCAGAGCUCAACACUGCGUGGCAAAGUGGCUGUGGCUAGACUGUC", "note": "[G2U A16U C45U]", "self-cleavage": 0.01}
    ]}
  ]
}
